According to PubChem BioAssay AID1508624 (National Center for Advancing Translational Sciences (NCATS), 2021):
The whole screen tested about 48,000 compounds, of which about 120 (0.25%) were called active. Another 4% or so got no clear call; they are omitted. The call rests on the fitted dose curve; in most records, active means well fitted activation curve with a large enough effect; inconclusive means small, poorly fitted or top-dose-only effect, or another doubt; inactive means no such curve, though single readings can be large or run the other way. This is one part of the list.

test: Primary qHTS for Identification of Small Molecule Activators of Huntingtin-Antisense Promoter Activity; settings: HEK293 HTT-AS promoter firefly luciferase reporter, 24 h; series mostly up to 57.5 µM; activity change, positive = activation: at the top concentration; further: nearly all actives have a fitted effect of over 55% in size
Procedure, shortened: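 Luminescence was read after Dual-Glo reagent and a 10 min room-temperature incubation. Values were normalized to vehicle (0% activity) and zero RLU (-100% activity). Reporter HEK293 cells had been exposed to compounds (up to 57.5 uM final) for 24 h.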

Activity change, positive = activation, inactive:
COc1ccccc1C(=O)NCc1ccc2c(c1)CCN2C(=O)c1ccncc1 -15.9%
Cc1cc(NC(=O)CSc2nc3c([nH]c4ccccc43)c(=O)n2-c2cccc(Cl)c2)no1 -26.1%
Clc1ccc(-c2noc3ncnc(NCCCN4CCN(c5ccccc5)CC4)c23)cc1 -24.2%
CCn1cc(C(=O)O)c(=O)c2cc(F)c(N3CCNCC3)nc21
CCOc1ccccc1NC(=O)C(Cc1ccccc1)NS(=O)(=O)c1ccc(Br)s1 (stereo not given) -41.3%
Cc1ccc(C)c(N2CCN(C(=O)C3CCN(S(=O)(=O)c4cn(C)cn4)CC3)CC2)c1 -11.9%
CC(=O)OCC(=O)NCCCOc1cccc(CN2CCCCC2)c1 -3.57%
CCc1ccc(CNC(=O)C(CC)n2ccc3cc(S(=O)(=O)N4CCCCC4)ccc32)cc1 (stereo not given) -5.81%
CC1=C(C(=O)Nc2cccnc2)C(c2ccc(F)cc2)n2nc(SCc3ccccc3F)nc2N1 (stereo not given) -10.2%
CCN(C(=O)c1cc2c(Cl)nc3ccccc3c2s1)c1cccc(Cl)c1 -7.91%
CCOC(=O)c1cnc2c(C)c(Cl)ccc2c1Nc1ccc(C)cc1C -8.49%
CN1c2cc(Cl)ccc2-c2nc(SCC(=O)Nc3ccc(F)cc3F)ncc2S1(=O)=O -28%
COc1cc(NC(=O)CN(C)S(=O)(=O)c2ccc3[nH]c4c(c3c2)CCCC4)cc(OC)c1OC -24.2%
C[C@H](NCc1ccc(OCc2cccc(F)c2)cc1)C(N)=O 8.47%
COc1ccc(OC2CCN(S(=O)(=O)c3ccc(OC)cc3)CC2)cc1 -24.3%
CCOC(=O)N1CCc2c(sc(NCc3ccc(OCC)cc3)c2C(=O)Nc2ccc(OC)cc2OC)C1 -82%
O=C(NC1CCCC1)c1ccc(CSc2nc3ccncc3n2Cc2ccccc2F)cc1 2.77%
O=C(Nc1ccccc1F)C(Cc1ccccc1)n1cccc1 (stereo not given) -3.52%
COc1ccc(-c2c3c(=O)n(C)c(=O)n(C)c3c3c(-c4ccccc4)nc4ccccc4n23)cc1 3.77% [at 11.5 µM, percent change from vehicle, -100% = no light]
CNC(=O)c1cc2c(n(-c3ccc(C)cc3)c1=O)CC(C)(C)CC2=O -9.39%
Cc1cc(C)c(Nc2nn3c(=O)c4cc5c(cc4nc3s2)OCO5)c(C)c1 -6.61%
O=C(Nc1ccc2nc(SCC(=O)N3CCOCC3)sc2c1)c1ccc(F)cc1 -24.7%
COc1cccc(C(=O)Nc2ccc3oc(-c4ccc5ccccc5c4)nc3c2)c1 17.6%
COc1cc(OC)cc(-c2nc3nc(C)c(CCC(=O)Nc4ccc(Cl)cc4)c(C)n3n2)c1 -15.5%
CCOC(=O)Cn1c(=O)oc2cc(S(=O)(=O)Nc3cc(OC)cc(OC)c3)ccc21 -14.5%
